Measured values reported in the supplement of paper PMC4967469.
Lines with a small IC50 respond at low doses; fits outside the tested doses are given as limits. The AUC spans the tested range (256-fold, ending at the top dose) of the same fit: 1 means no effect, lower means more sensitive. For part of these data: Where the top dose is marked as inferred, it is not printed in the source and was worked back from the curve model. For part of these data: An entry number marks a drug with two screens in the source, which often give different values.

Assays:
Assay in all cases: Viability of human cancer cell lines after 72 h of drug (GDSC screen)
Docetaxel = compound: CC(=O)O[C@@]12CO[C@@H]1C[C@H](O)[C@@]1(C)C(=O)[C@H](O)C3=C(C)[C@@H](OC(=O)[C@H](O)[C@@H](NC(=O)OC(C)(C)C)c4ccccc4)C[C@@](O)([C@@H](OC(=O)c4ccccc4)[C@H]21)C3(C)C [Docetaxel]; details: top dose 0.0125 µM
Protocol: (§1)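 Human cancer cell lines in 384-well plates, medium with 10% serum, drug for 72 h over a 256-fold dose range (nine 2-fold or five 4-fold steps up to the top dose). Adherent lines were fixed and stained with the nucleic acid dye Syto60, suspension lines read with resazurin; signal relative to control wells, capped at 0 and 100%. One two-parameter sigmoid per drug and line, fitted in a mixed model over all curves with the slope shared within a line.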

AMG-706 = compound: CC1(C)CNc2cc(NC(=O)c3cccnc3NCc3ccncc3)ccc21 [AMG-706]; details: top dose 2 µM; top dose inferred
Protocol: as §1

Cyclopamine = compound: CC1=C2C[C@H]3[C@@H](CC=C4C[C@@H](O)CC[C@@]43C)[C@@H]2CC[C@]12O[C@@H]1C[C@H](C)CN[C@H]1[C@H]2C [Cyclopamine]; details: top dose 16 µM; top dose inferred
Protocol: as §1

JNK Inhibitor VIII = compound: CCOc1nc(NC(=O)Cc2cc(OC)ccc2OC)cc(N)c1C#N [JNK Inhibitor VIII]; details: top dose 10 µM; top dose inferred
Protocol: as §1

NSC-207895 = compound: CN1CCN(c2ccc([N+](=O)[O-])c3no[n+]([O-])c23)CC1 [NSC-207895]; details: top dose 20 µM; top dose inferred
Protocol: as §1

FTI-277 = compound: COC(=O)[C@H](CCSC)NC(=O)c1ccc(NC[C@@H](N)CS)cc1-c1ccccc1 [FTI-277]; details: top dose 1.024 µM; top dose inferred
Protocol: as §1

YM155 = compound: COCC[n+]1c2c(n(Cc3cnccn3)c1C)C(=O)c1ccccc1C2=O [YM155]; details: top dose 5.12 µM
Protocol: as §1

OSI-906 = compound: C[C@]1(O)C[C@@H](c2nc(-c3ccc4ccc(-c5ccccc5)nc4c3)c3c(N)nccn32)C1 [OSI-906]; details: top dose 2.56 µM; top dose inferred
Protocol: as §1

SB-715992 = compound: Cc1ccc(C(=O)N(CCCN)[C@@H](c2nc3cc(Cl)ccc3c(=O)n2Cc2ccccc2)C(C)C)cc1 [SB-715992]; details: top dose 0.128 µM; top dose inferred
Protocol: as §1

JQ1 = compound: Cc1sc2c(c1C)C(c1ccc(Cl)cc1)=N[C@@H](CC(=O)OC(C)(C)C)c1nnc(C)n1-2 [JQ1]
Protocol: as §1

Belinostat = compound: O=C(/C=C/c1cccc(S(=O)(=O)Nc2ccccc2)c1)NO [Belinostat]; details: top dose 20 µM; top dose inferred
Protocol: as §1

CGP-60474 = compound: OCCCNc1cc(-c2ccnc(Nc3cccc(Cl)c3)n2)ccn1 [CGP-60474]; details: top dose 0.256 µM; top dose inferred
Protocol: as §1

JNJ-26854165 = compound: c1ccc2c(CCNc3ccc(Nc4ccncc4)cc3)c[nH]c2c1 [JNJ-26854165]; details: top dose 10 µM
Protocol: as §1

[1] = top dose 1 µM, screen: GDSC drug entry 1218, top dose inferred
[2] = top dose 2.56 µM, screen: GDSC drug entry 163

Row | Cell Line | AUC (Docetaxel) | IC50 (Docetaxel) | AUC (AMG-706) | IC50 (AMG-706) | AUC (Cyclopamine) | IC50 (Cyclopamine) | AUC (JNK Inhibitor VIII) | IC50 (JNK Inhibitor VIII) | AUC (NSC-207895) | IC50 (NSC-207895) | AUC (FTI-277) | IC50 (FTI-277) | AUC (YM155) | IC50 (YM155) | AUC (OSI-906) | IC50 (OSI-906) | AUC (SB-715992) | IC50 (SB-715992) | AUC (JQ1; [1]) | IC50 (JQ1; [1]) | AUC (JQ1; [2]) | IC50 (JQ1; [2]) | AUC (Belinostat) | IC50 (Belinostat) | AUC (CGP-60474) | IC50 (CGP-60474) | AUC (JNJ-26854165) | IC50 (JNJ-26854165)
1 | KY821 (leukaemia, suspension) | 0.925 | > 0.0125 µM | 0.992 | > 2 µM | 0.967 | > 16 µM | 0.989 | > 10 µM | 0.966 | > 20 µM | 0.992 | > 1.02 µM | 0.028 | < 0.02 µM | 0.992 | > 2.56 µM | 0.944 | > 0.128 µM | 0.991 | > 1 µM | 0.99 | > 2.56 µM | 0.408 | 0.726 µM | 0.764 | 0.0818 µM | 0.969 | > 10 µM
2 | L-428 (Hodgkin lymphoma, suspension) | 0.993 | > 0.0125 µM | 0.991 | > 2 µM | 0.982 | > 16 µM | 0.987 | > 10 µM | 0.987 | > 20 µM | 0.98 | > 1.02 µM | 0.989 | > 5.12 µM | 0.988 | > 2.56 µM | 0.851 | 0.0807 µM | 0.979 | > 1 µM | 0.914 | > 2.56 µM | 0.991 | > 20 µM | 0.818 | 0.122 µM | 0.992 | > 10 µM
3 | LAMA-84 (chronic myeloid leukaemia, suspension) | 0.94 | > 0.0125 µM | 0.98 | > 2 µM | 0.899 | > 16 µM | 0.967 | > 10 µM | 0.922 | > 20 µM | 0.985 | > 1.02 µM | 0.211 | 0.0446 µM | 0.966 | > 2.56 µM | 0.752 | 0.0429 µM | 0.977 | > 1 µM | 0.813 | 1.41 µM | 0.37 | 0.543 µM | 0.867 | 0.238 µM | 0.826 | 6.17 µM
4 | LB2518-MEL (melanoma, adherent) | 0.882 | > 0.0125 µM | 0.987 | > 2 µM | 0.941 | > 16 µM | 0.982 | > 10 µM | 0.894 | > 20 µM | 0.979 | > 1.02 µM | 0.036 | < 0.02 µM | 0.945 | > 2.56 µM | 0.923 | > 0.128 µM | 0.986 | > 1 µM | 0.924 | > 2.56 µM | 0.561 | 1.85 µM | 0.755 | 0.0908 µM | 0.92 | > 10 µM
5 | LC4-1 (lymphoblastic leukaemia, suspension) | 0.985 | > 0.0125 µM | 0.984 | > 2 µM | 0.943 | > 16 µM | 0.984 | > 10 µM | 0.82 | 13.1 µM | 0.948 | > 1.02 µM | 0.034 | < 0.02 µM | 0.968 | > 2.56 µM | 0.665 | 0.0243 µM | 0.983 | > 1 µM | 0.575 | 0.262 µM | 0.259 | 0.235 µM | 0.737 | 0.0827 µM | 0.926 | > 10 µM
6 | LS-513 (large intestine, adherent) | 0.938 | > 0.0125 µM | 0.987 | > 2 µM | 0.859 | 14.2 µM | 0.987 | > 10 µM | 0.973 | > 20 µM | 0.984 | > 1.02 µM | 0.723 | 1.42 µM | 0.82 | 1.55 µM | 0.877 | > 0.128 µM | 0.978 | > 1 µM | 0.917 | > 2.56 µM | 0.56 | 1.84 µM | 0.861 | 0.231 µM | 0.851 | 8.17 µM
7 | LS-1034 (large intestine, adherent) | 0.952 | > 0.0125 µM | 0.986 | > 2 µM | 0.977 | > 16 µM | 0.986 | > 10 µM | 0.902 | > 20 µM | 0.986 | > 1.02 µM | 0.622 | 0.718 µM | 0.562 | 0.241 µM | 0.879 | > 0.128 µM | 0.969 | > 1 µM | 0.916 | > 2.56 µM | 0.401 | 0.651 µM | 0.816 | 0.16 µM | 0.949 | > 10 µM
8 | LU-165 (small cell lung carcinoma, suspension) | 0.988 | > 0.0125 µM | 0.984 | > 2 µM | 0.987 | > 16 µM | 0.988 | > 10 µM | 0.909 | > 20 µM | 0.988 | > 1.02 µM | 0.042 | < 0.02 µM | 0.937 | > 2.56 µM | 0.985 | > 0.128 µM | 0.947 | > 1 µM | 0.952 | > 2.56 µM | 0.382 | 0.567 µM | 0.962 | > 0.256 µM | 0.972 | > 10 µM
9 | MC-CAR (haematopoietic neoplasm, suspension) | 0.84 | 0.00731 µM | 0.97 | > 2 µM | 0.978 | > 16 µM | 0.971 | > 10 µM | 0.913 | > 20 µM | 0.964 | > 1.02 µM | 0.066 | < 0.02 µM | 0.964 | > 2.56 µM | 0.683 | 0.0243 µM | 0.983 | > 1 µM | 0.663 | 0.429 µM | 0.236 | 0.239 µM | 0.699 | 0.054 µM | 0.932 | > 10 µM
